Assay results from PubChem BioAssay AID652104 (National Center for Advancing Translational Sciences (NCATS), 2013).
The campaign covered roughly 410,000 compounds. About 7,200 (1.8%) were called active. The shares of active, inactive and inconclusive entries below differ from those in the screen. The call rests on the fitted dose curve; in most records, active means well fitted activation curve with a large enough effect; inconclusive means small, poorly fitted or top-dose-only effect, or another doubt; inactive means no such curve, though single readings can be large or run the other way. Potencies of inconclusive entries are left out as doubtful fits.

assay: qHTS of TDP-43 Inhibitors; details: TDP-43 expressing yeast growth rescue, BacTiter-Glo, 24 h; growth rescue (activation): at 46.1 µM (top of the series) unless noted; further: nearly all actives have a fitted effect of over 50% in size; on growth rescue (activation): % of control where 0% means no effect
Method in brief: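 Readout is BacTiter-Glo luminescence of cell growth, so inhibitors register as activators. TDP-43-expressing yeast at OD600=0.02 in galactose medium, after raffinose pregrowth to mid-log, were incubated with compound for 24 hr at 30 deg C.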
Potency means the concentration at half of the fitted maximal effect; tags describe the fitted curve by direction and shape.

SMILES	Potency	growth rescue (activation)
Fc1cccc(Cl)c1CSc1nnc(-c2ccncc2)o1	active: 12.6 µM	
C(=N\n1cnnc1)/c1ccc(OCc2ccccc2)cc1	inconclusive [activator, single point]	
COc1ccc(NC(=O)CCC(=O)N2CCN(S(=O)(=O)c3ccc(C)cc3)CC2)c(OC)c1	inconclusive [activator, partial curve]	
COc1ccc2sc(NCc3ccccc3)nc2c1	inconclusive [activator, partial curve]	
COc1cccc(CSc2nnc(-c3ccco3)n2C)c1	inconclusive [activator, single point]	
O=C(c1ccc2nc(N3CCOCC3)sc2c1)N1CCC(Cc2ccccc2)CC1	active: 25.1 µM	
Cc1ccc(NCc2nnc(SCC(=O)N3CCCc4ccccc43)o2)c(C)c1	inconclusive [activator, partial curve, poor fit]	
Cc1nn2c(NCc3ccccn3)cc(C(C)C)nc2c1-c1ccccc1		inconclusive: -63.6% [activator]
CCc1ccccc1NC(=O)c1cc(-c2ccco2)on1	inconclusive [activator, partial curve]	
O=C(COc1ccccc1C(=O)c1cnn(-c2ccccc2)c1)Nc1ccccc1	inconclusive [activator, full curve]	
O=C(O)CCCNC(=O)Cc1ccccc1	inconclusive [activator, single point]	
Cc1nc(-c2ccc(Cl)cc2)sc1CCNC(=O)c1cccs1	inconclusive [activator, single point]	
COc1cc2c(cc1O)CC[C@@H]1[C@@H]2CC[C@]2(C)[C@@H](O)CC[C@@H]12	inconclusive [activator, partial curve]	
COc1ccc(-c2noc(CNS(=O)(=O)c3ccccc3)n2)cc1	inconclusive [activator, partial curve]	
COc1ccc(CNC(=O)c2cc(SC)ccc2Cl)cc1OC	inconclusive [activator, single point]	
Cc1ccc(S(=O)(=O)N(CC(=O)N2CCN(c3ccc(F)cc3)CC2)C2CCCCC2)cc1	active: 20 µM	
CCCc1nc2ccccc2n2c(-c3ccccc3)c3c(=O)n(C)c(=O)n(C)c3c12	inconclusive [activator, partial curve, poor fit]	
COc1cc2nc(C3CCC3)nc(N3CCN(c4ccccn4)CC3)c2cc1OC	inactive	
COc1cc(OC)c(C(=O)OC(C)C(=O)Nc2cc(C(F)(F)F)ccc2Cl)cc1OC (stereo not drawn)	inconclusive [activator, partial curve]	
Cc1ccc(C(=O)c2cnc3cc4c(cc3c2S(=O)(=O)c2ccccc2)OCCO4)cc1	inconclusive [activator, partial curve]	
CCCN(CCC)c1ncnc2nc[nH]c12	inconclusive [activator, full curve, poor fit]	
CCOc1ccc(OCCC(=O)OCC(=O)NC(C)c2ccccc2)cc1 (stereo not drawn)	inconclusive [activator, partial curve, poor fit]	

SMILES	Potency	growth rescue (activation)
Cc1ccc(-c2nc(CCN3C(=O)c4ccccc4C3=O)cs2)cc1	inconclusive [activator, single point]	
Cc1ccc(C)c(OCC(=O)Nc2ccc3c(c2)OCO3)c1	inconclusive [activator, partial curve]	
CC(=O)c1cccc(-c2ccnc3c2CC(C(=O)Nc2ccc(C(C)C)cc2)O3)c1 (stereo not drawn)	active: 20 µM	
O=C(CCc1nc(-c2ccc(Cl)cc2)no1)NC1CCCC1	inconclusive [activator, partial curve]	
COC(=O)CSC(=S)N1CCCC(C)C1 (stereo not drawn)	inconclusive [activator, partial curve]	
Cc1ccc(S(=O)(=O)N(C)c2cc(S(=O)(=O)N3CCOCC3)c(C)cc2C)cc1	inconclusive [activator, partial curve]	
CCCCCCOC(=O)c1ccc(N)cc1	active: 12.6 µM	
COc1ccc(Cc2noc(CN3CCN(c4ccc(Cl)cn4)CC3)n2)cc1OC	inconclusive [activator, single point]	
Cc1sc2nc(C3CC3)nc(N3CCN(C(=O)c4ccc(F)cc4)CC3)c2c1C	inconclusive [activator, single point]	
COc1ccc(S(=O)(=O)NCC(c2ccco2)S(=O)(=O)c2cccs2)cc1C (stereo not drawn)	inconclusive [activator, full curve]	
COc1ccc(CCNC(=O)COc2cc(O)c3c(c2)OC(C)(C)CC3=O)cc1	inconclusive [activator, single point]	
CCC(=O)N(CC)c1nc(-c2ccc(OC)cc2)cs1	active: 5.01 µM	
CCOc1ccc(C2Nc3c(C)cccc3-c3cc(C)nn32)cc1 (stereo not drawn)	active: 11.2 µM	
CCOc1ccccc1C(=O)Nc1c(C(=O)Nc2ccc(F)cc2)oc2ccccc12	inactive	
Cc1cc(Cl)ccc1OCCCC(=O)N1CCCCC1	inconclusive [activator, partial curve]	
FC(F)Oc1ccc(NC(=S)NCc2ccccc2)cc1	inconclusive [activator, single point]	
CCOC(=O)Nc1cccc(OCC(=O)Nc2ccc(OC)cc2OC)c1	inconclusive [activator, partial curve]	
COc1nc(NCc2cccnc2)nc(NC2CCCCC2)n1	inactive	
CC(C)NC(=O)COC(=O)c1ccc(Oc2ccccc2)cc1	inconclusive [activator, single point]	
COCOCCn1cc(CN2CCS(=O)(=O)N(Cc3ccc(-c4ccccc4)cc3)C(CC(C)C)C2=O)nn1 (stereo not drawn)	inconclusive [activator, single point]	
COc1ccc(/C=N/NC(=O)COc2ccccc2-c2ccccc2)cc1	inconclusive [activator, single point]	
